{"source": "patent US9763922B2", "about": "(priority 2014, dated 2017)", "note": "pIC50: −log10 of the molar value.", "data": [{"target": "BRD4 BD1 (Homo sapiens (Human), UniProt O60885)", "details": "read-out: BRD4 Alpha IC50", "values": [{"molecule": "CC(=O)N1CCc2c(c(Nc3ccc(-c4cncc(C#N)c4)cc3)nn2C)C1", "note": "[Example 146, 1-[3-[7-(difluoromethoxy)-6-(1-methylpyrazol-4-yl)-3,4-dihydro-2H-quinolin-1-yl]-1-tetrahydropyran-4-yl-6,7-dihydro-4H-pyrazolo[4,3-c]pyridin-5-yl]ethanone]", "pIC50": 5.27}, {"molecule": "CC(=O)N1CCc2c(c(Nc3ccc(-c4cc(F)ccc4F)cc3)nn2C)C1", "note": "[Example 134, 1-[3-[7-methyl-6-(1-methylpyrazol-4-yl)-3,4-dihydro-2H-quinolin-1-yl]-1-[(3S)-tetrahydrofuran-3-yl]-6,7-dihydro-4H-pyrazolo[4,3-c]pyridin-5-yl]ethanone]", "pIC50": 5.26}, {"molecule": "CC(=O)N1CCc2c(c(Nc3ccc(-c4cccc(C)c4)cc3)nn2C)C1", "note": "[Example 117, 1-[3-[3-cyclopropyl-6-(1-methylpyrazol-4-yl)-3,4-dihydro-2H-quinolin-1-yl]-1-((S)-tetrahydrofuran-3-yl)-6,7-dihydro-4H-pyrazolo[4,3-c]pyridin-5-yl]ethanone]", "pIC50": 5.40}, {"molecule": "CCCC(=O)N1CCc2c(c(Nc3cc(C(F)F)c(-c4cnn(C)c4)cc3F)nn2C2CCOCC2)C1", "note": "[Example 253, 3-[6-(difluoromethyl)-5-(1,5-dimethylpyrazol-4-yl)indolin-1-yl]-N-methyl-1-tetrahydropyran-4-yl-6,7-dihydro-4H-pyrazolo[4,3-c]pyridine-5-carboxamide]", "pIC50": "< 4.70"}, {"molecule": "CC(=O)N1CCc2c(c(Nc3ccc(-c4cnn(C)c4)cc3)nn2CCC#N)C1", "note": "[Example 184, 1-[3-[5-(1,5-dimethylpyrazol-4-yl)indolin-1-yl]-1-tetrahydrofuran-3-yl-6,7-dihydro-4H-pyrazolo[4,3-c]pyridin-5-yl]ethanone]", "pIC50": 5.02}, {"molecule": "CC(=O)N1CCc2c(c(Nc3cccc(C)c3)nn2C(C)c2ccn(C)n2)C1", "note": "(stereo not shown) [Example 210, 1-[3-[5-fluoro-6-(1-methylpyrazol-4-yl)indolin-1-yl]-1-tetrahydrofuran-3-yl-6,7-dihydro-4H-pyrazolo[4,3-c]pyridin-5-yl]ethanone]", "pIC50": 5.07}, {"molecule": "CC(=O)N1CCc2c(c(Nc3cccc(-c4cn[nH]c4)c3)nn2C)C1", "note": "[Example 82, (S,S)-1-[3-[3-(2,2-difluoroethyl)-6-(1-methylpyrazol-4-yl)-3,4-dihydro-2H-quinolin-1-yl]-1-tetrahydrofuran-3-yl-6,7-dihydro-4H-pyrazolo[4,3-c]pyridin-5-yl]ethanone]", "pIC50": 5.27}, {"molecule": "CC(=O)N1CCc2c(c(Nc3cccc(-c4cncs4)c3)nn2C)C1", "note": "[Example 80, 1-[1-methyl-3-(3-thiazol-5-yl-anilino)-6,7-dihydro-4H-pyrazolo[4,3-c]pyridin-5-yl]ethanone]", "pIC50": 5.63}, {"molecule": "CC(=O)N1CCc2c(c(Nc3cccc(C)c3)nn2C(C)CO)C1", "note": "(stereo not shown) [Example 211, 1-(5-acetyl-1-methyl-4,5,6,7-tetrahydro-1H-pyrazolo[4,3-c]pyridin-3-yl)indoline-6-carboxylic Acid]", "pIC50": "< 4.70"}, {"molecule": "CC(=O)N1CCc2c(c(Nc3ccc(-c4cnn(CCO)c4)cc3)nn2C)C1", "note": "[Example 187, 4-[1-(5-acetyl-1-tetrahydrofuran-3-yl-6,7-dihydro-4H-pyrazolo[4,3-c]pyridin-3-yl)indolin-5-yl]-1-methyl-pyrazole-3-carbonitrile]", "pIC50": 4.91}, {"molecule": "CC(=O)N1CCc2c(c(Nc3cccc(C4CCCCC4)c3)nn2CC2CC2)C1", "note": "[Example 78, 1-(3-((3-cyclohexylphenyl)amino)-1-(cyclopropylmethyl)-6,7-dihydro-1H-pyrazolo[4,3-c]pyridin-5(4H)-yl)ethanone]", "pIC50": 5.63}, {"molecule": "COc1ccc(-c2ccc(Nc3nn(C)c4c3CN(C(C)=O)CC4)cc2)cc1", "note": "[Example 125, 1-[3-[7-chloro-6-(1-methylpyrazol-4-yl)-3,4-dihydro-2H-quinolin-1-yl]-1-[(3S)-tetrahydrofuran-3-yl]-6,7-dihydro-4H-pyrazolo[4,3-c]pyridin-5-yl]ethanone]", "pIC50": 5.45}, {"molecule": "CC(=O)N1CCc2c(c(Nc3ccc(-c4ccc(C#N)cc4)cc3)nn2C)C1", "note": "[Example 126, 1-[5-acetyl-1-[(3S)-tetrahydrofuran-3-yl]-6,7-dihydro-4H-pyrazolo[4,3-c]pyridin-3-yl]-6-(1-methylpyrazol-4-yl)-3,4-dihydro-2H-quinoline-7-carbonitrile]", "pIC50": 5.27}, {"molecule": "CC(=O)N1CCc2c(c(Nc3ccc(-c4cn(C)nc4C(N)=O)cc3F)nn2C2CCOC2)C1", "note": "(stereo not shown) [Example 247, 1-[3-[6-(1-methylpyrazol-4-yl)-7-(trifluoromethoxy)-3,4-dihydro-2H-quinolin-1-yl]-1-tetrahydropyran-4-yl-6,7-dihydro-4H-pyrazolo[4,3-c]pyridin-5-yl]ethanone]", "pIC50": 5.04}, {"molecule": "CC(=O)N1CCc2c(c(Nc3ccc(-c4ccc(C#N)nc4)cc3)nn2C)C1", "note": "[Example 145, 1-[3-[7-methoxy-6-(1-methylpyrazol-4-yl)-3,4-dihydro-2H-quinolin-1-yl]-1-[(3S)-tetrahydrofuran-3-yl]-6,7-dihydro-4H-pyrazolo[4,3-c]pyridin-5-yl]ethanone]", "pIC50": 5.36}, {"molecule": "Cn1cc(-c2ccc(Nc3nn([C@H]4CCOC4)c4c3CN(C(N)=O)CC4)c(F)c2)cn1", "note": "[Example 258, 3-[7-cyclopropyl-6-(1-methylpyrazol-4-yl)-3,4-dihydro-2H-quinolin-1-yl]-N-methyl-1-tetrahydropyran-4-yl-6,7-dihydro-4H-pyrazolo[4,3-c]pyridine-5-carboxamide]", "pIC50": "< 4.70"}, {"molecule": "CC(=O)N1CCc2c(c(Nc3cccc(C)c3)nn2Cc2ccccc2)C1", "note": "[Example 203, 1-(5-acetyl-1-methyl-6,7-dihydro-4H-pyrazolo[4,3-c]pyridin-3-yl)indoline-6-carbonitrile]", "pIC50": 5.58}, {"molecule": "CC(=O)N1CCc2c(c(Nc3cccc(C)c3)nn2CC2CCCN(C)C2)C1", "note": "(stereo not shown) [Example 209, 1-[3-[4-fluoro-6-(1-methylpyrazol-4-yl)indolin-1-yl]-1-tetrahydrofuran-3-yl-6,7-dihydro-4H-pyrazolo[4,3-c]pyridin-5-yl]ethanone]", "pIC50": 5.22}, {"molecule": "CC(=O)N1CCc2c(c(Nc3cccc(C)c3)nn2C2CC2)C1", "note": "[Example 217, 1-[3-[7-fluoro-5-(1-methylpyrazol-4-yl)indolin-1-yl]-1-methyl-6,7-dihydro-4H-pyrazolo[4,3-c]pyridin-5-yl]ethanone]", "pIC50": 4.87}, {"molecule": "CNC(=O)c1ccc(-c2ccc(Nc3nn(C)c4c3CN(C(C)=O)CC4)cc2)cc1", "note": "[Example 149, 1-[3-[6-(1-methylpyrazol-4-yl)-7-(trifluoromethoxy)-3,4-dihydro-2H-quinolin-1-yl]-1-[(3S)-tetrahydrofuran-3-yl]-6,7-dihydro-4H-pyrazolo[4,3-c]pyridin-5-yl]ethanone]", "pIC50": 5.56}, {"molecule": "CC(=O)N1CCc2c(c(Nc3ccc(-c4cnn(C)c4)cc3F)nn2C(C)(C)CO)C1", "note": "[Example 244, 1-[3-[6-(difluoromethyl)-5-(1,5-dimethylpyrazol-4-yl)indolin-1-yl]-1-tetrahydropyran-4-yl-6,7-dihydro-4H-pyrazolo[4,3-c]pyridin-5-yl]ethanone]", "pIC50": 5.18}, {"molecule": "CC(=O)N1CCc2c(c(Nc3ccc(-c4cnn(C)c4)cc3S(C)(=O)=O)nn2C2CCOC2)C1", "note": "(stereo not shown) [Example 232, cyclopropyl(3-(6-(1-methyl-1H-pyrazol-4-yl)-3,4-dihydroquinolin-1(2H)-yl)-1-(tetrahydro-2H-pyran-4-yl)-6,7-dihydro-1H-pyrazolo[4,3-c]pyridin-5(4H)-yl)methanone]", "pIC50": 4.82}]}]}
